B1: tRNA (parent)
chain: CUCUCGGUAGCCAAGUUGGUUUAAGGCGCAAGACUUUAAUUUAUCACUACGAAAUCUUGAGAUCGGGCGUUCGACUCGCCCCCGGGAGAUUUUUUCCUCGAGCAA

This sample is rich in variants without activity.

In this data set the parent is B1. The experiment in a line: nonsense suppression (GFP-seq) (ratio to wild type); higher = more function; SUP4oc tRNA, yeast GFP reporter sort-seq. In short, it runs like this:
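Yeast carrying genome-integrated SUP4oc tRNA variants from a library with ~3% random mutations were grown in raffinose/galactose medium with 80 mg/L adenine. Each strain also carried a galactose-driven GFP ochre reporter and RFP. Cells were sorted into GFP/RFP bins, and each bin was Illumina-sequenced (phred ≥30). Nonsense suppression (GFPSEQ) is the bin median GFP/RFP, weighted by each variant's estimated cell share per bin, relative to wild-type SUP4oc; variants needed ≥100 reads and ≥30 cells.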
As to CUCUCGGUAGCCAAGUUGGUUUAAGGCGCAAGACUUUAAUUUAUCACUACGAAAUAUUGAGAUCGGGCGUUCGACUCGCCCCCGGGAGCUUUUUUCCUCGAGCAA [C56A A89C], the nonsense suppression was at most 0.026.
To CUCUCGAUAGCCAAGUUGGUUUAAGACGCAAGACUUUAAUUUAUCACUACGAAAUCUUGAGAUCGGGCGUUCGACUCGCCCCCGGGAGAUUUUUUCCUCGAGCAA [G7A G26A] belongs at most 0.026; to CCCUCGGUAGCCAAGUUUGUUUAAGGCGCAAGACUUUAAUUUAUCACUACGAAAUCUUGAGAUCGGGCGUUCGACUCGCCCCCGGGAGAUUUUUUCCUCGAGCAA [U2C G18U], at most 0.026; to CUCUCGGUAGCCAAGUUGGUUUAAAGCGCAAGACUUUAAUUUAUCACUACGAAAUCUUGAUAUCGGGCGGUCGACUCGCCCCCGGGAGAUUUUUUCCUCGAGCAA [G25A G61U U70G], at most 0.026.
Then CUCUCUGUAGCCAAGUUGGUUUAAGGCGCAAGACUUUAAUUUAUCACUACGAAAUCUUGAUAUCGGGCGUUCGGCUCGCCCCCGGCAGAUUUUUUCCUCGAGCAA [G6U G61U A74G G86C], with at most 0.026.
Then CUCUCGGUACCCAAGUUGGUUUAAGGCGCAAGACUUUAAUUUAUCACUACGAAAUCUUUAGAUCGAGCGUUCGACUCGCCCCCGUGAGAUUUUUUCCUCGAGCAA [G10C G59U G66A G85U], with at most 0.026; and CUCUCGGUAGCCAAGUAGGUUUAAGGCGCAACACUUUAAUUUAUCACUACGAAAUCUUGAGAUCGGGCGUGCGACUCGCCCCCGGGAGAUUUUUUCCUCGAGCAA [U17A G32C U71G], with 0.0947.
Turning to CUCUCGGUAGCCAAGUAGGUUUAAGGCGCUAGUCUUUAAUUUAUCACUACGAAAAGUUGAGAUCGGGCGUUCGACUCGCCCCCGGGAGAUUUUUUCCUCGAGCAA [U17A A30U A33U U55A C56G], the nonsense suppression was at most 0.026.
To CUCUCGGUAGCCAAGUUGGUUUAAGGCGCAAGACUUUAAUUUAUCACUACGAAAUCUUGAGAUCGGGCGAUCGACUCGCCCCUGGGAGAUUUUUUCCUCGAGCAA [U70A C83U] belongs 0.0439; to CUCUAGGUAGCCAAGUUGGUUUAAGGCGCAAGACUUUAAUUUAUCACUACGAAAUCUUGAGAUCGGGCGUUCGACGCGCCCCCGGGAGAUUUUUUCCUCGAGCAA [C5A U76G], at most 0.026; to CUCUCGGUAGCCGAGUUGGAUUAAGGCGCAAGACUUUAAUUUAUCACUACGAAAUCUAGAUAUCGGGCGUUCGCCCCGCCCCCGGGAGAUUUUUUCCUCGAGCAA [A13G U20A U58A G61U A74C U76C], at most 0.026.
Then CUCUCGGUAGCCAAGUUGGUUUAAGGCGCAAGAAUUUAAUUUAUCACUACGAAAUCUUGAGAUCGGGCAUUCGACUCGGCCCCGGGAGAUUUUUUCCUCGAGCAA [C34A G69A C79G], with at most 0.026; and CUCUCGGUAGCCAAGUUGGUUUAAGGCGCAAGACCUUAAUUUAUCACUACGAAAUCUUGAGAUCGGGCGUUCCACUCGCCCCCGGGAGAUUUUUUCCUCGAGCAA [U35C G73C], with at most 0.026.
As to CUCUCGGUAGCCAAGUUGGUUUAAGGCGCAAGACUUUAAUUUAUCACUACGAAAUCUUGAGAUCGGGCGUUCGACUAGCCCGCGGGAGAUUUUUUCCUCGAGCAA [C77A C82G], the nonsense suppression is at most 0.026.
To CCCUCGGUAGCCAAGUUGGUUUAAGGCUCAAGACUUUAAUUUAUCACUACGAAAUCUUGAGAUCGGGCGUUCGACUCGCCCCCGGGAGAUUUUUUCCUCGAGCAA [U2C G28U] belongs at most 0.026; to CUCUCGGUAGACAAGUUGGUUUAAGGCGCAAGACUUUAAUUUAUCACUACGAAAUCUUGCGAUCGGGCGUUCGACUCGCCCCCGGGAGAUUUUUUCCUCGAGCAA [C11A A60C], at most 0.026.
Then CUCUCGGUAGCCAAGUUGGUUUAAGGCGCAAGACGUUAAUUUAUCACUACGAAAUCUUGAGAUCGGGCGUUCGACUCGCCCCUGGGAGAUUUUUUCCUCGAGCAA [U35G C83U], with at most 0.026.
For CUCUCGGUAGCCAAGUUGGUUUAAGGCGGAAGACUUUAAUUUAUCACUACGAAAUCUUGACAUCGGGCGUUCGACUCGCCCCCGGGAGAUUUUUUCCUCGAGCAA [C29G G61C], the nonsense suppression was at most 0.026.
To CUCUCGGUAGCCAAGUUGGUUUAAGGCGCAAUACUUUAAUUUAUCACUACGAAAUCUUGUGAUCGGGCGUUCGACUCGCCCCCGGGAGAUUUUUUCCUCGAGCAA [G32U A60U] belongs at most 0.026; to CUCUCGGUAGCCAAGUUGGUUUAAGGCCCAAGACUUUAAUUUAUCACUACGAAAUCUUGAGAGCGGGCGUUGGACUCGCCCCCGGGAGAUUUUUUCCUCGAGCAA [G28C U63G C72G], at most 0.026.
CUCUCGGUAGCAAAGUUGGUUUAAGGCGCCAGAUUUUAAUUUAUCACUACGAAAUCUUGAGAUCGGGCGUUCGACUCGCCCCCGGGAGAUUUUUUCCUCGAGCAA [C12A A30C C34U]: the nonsense suppression is at most 0.026.
On to GUCUCGUUAGCCAAGUUGGUUUAAGGCGCAAGACUUUAAUUUAUCACUACGAAAUCUUGAGAUCGGGCGUUCGACUCGCCCCCGGGAGAUUUUUUCCUCGAGCAA [C1G G7U], for which the nonsense suppression is at most 0.026.
To CUCGCGGUAGCCAAGCUGGUUUAAGGCGCAAGACUUUAAUUUAUCACUACGAAAUCUUGAGAUCGGGCGUUCGACUCGCCCCCGGGAGAUUUUUUCCUCGAGCAA [U4G U16C] belongs 0.882; to CUCUCGGUAGCCAAGUUGGUUUAAGGUGCAAAACUUUAAUUUAUCACUACGAAAUCUUGAGAUCGGGCGUUCGACUCGCCCCCGGGAGAUUUUUUCCUCGAGCAA [C27U G32A], at most 0.026.
Then CUCUCGGUAGCAAAGUUGGUUUAAGGCGCAAGACUUUAAUUUAUCACUACGAAAUCUUGAGAUCGGGCGUUCGACUCGCCCCCGGCAGAUUUUUUCCUCGAGCAA [C12A G86C], with at most 0.026.
For the variant CUCUCGGUCGCCAAGUUGGUUUAAGGCGCAAGACUUUAAUUUAUCACUACGAAAUCUUGAGAUCGGGUGUUCGACUCGCCCCCGGGAGAUUUUUUCCUCGAGCAA [A9C C68U], the nonsense suppression was 0.765.
In the case of CUCUCGGUAGCCAAGUUGGUUUAAGGCGCAAGAAUUUAAUUUAUCACUACGAAAUCAUGAGAUCGGGCGUGCGACUCGCCCCCGGGAGAUUUUUUCCUCGAGCAA [C34A U57A U71G], the nonsense suppression was at most 0.026.

The values above are taken from the RNAGym collection of RNA variant scans (doi:10.1101/gad.245936.114).
